Results taken from a compilation of properties of binary mixtures (doi:10.1016/j.molliq.2017.05.115).
The densities may have been worked out from excess volumes.

Experiment: xn = mol fraction of the nth substance listed
Conditions: 101 kPa

CC[n+]1ccn(C)c1.COS(=O)(=O)[O-] + CCCCCCCO
mass density [kg/m3]
Conditions	x1 = 0.0836	x1 = 0.1703	x1 = 0.2602	x1 = 0.3537	x1 = 0.4508	x1 = 0.5518	x1 = 0.657	x1 = 0.7665	x1 = 0.8808
298.15 K	865.2	911.8	958.5	1005.4	1052.4	–	1146.3	–	1239.4
303.15 K	861.7	908.3	955	1001.9	1048.9	1096	1142.9	–	1236.1
308.15 K	858.1	904.7	951.5	–	1045.4	1092.5	1139.5	1186.4	1233
